{
  "source": "the antibiotic and cytotoxicity screens of Wong et al. (2023)",
  "key": {"HSkMC": {"tested_on": "HSkMC", "test": "cytotoxicity call (relative viability < 0.9)", "settings": "10 µM"}, "HepG2": {"tested_on": "HepG2", "test": "cytotoxicity call (relative viability < 0.9)", "settings": "10 µM"}, "S. aureus RN4220": {"tested_on": "S. aureus RN4220", "test": "growth inhibition call (relative growth <= 0.2)", "settings": "50 µM"}},
  "note": "Some of the results follow.",
  "data": [
    {"smiles": "O=C(C[C@@H]1CC[C@@H]2[C@H](COC[C@H](O)CN2S(=O)(=O)c2ccccc2Cl)O1)NCCc1ccncc1", "values": [
      {"measurement": "cytotoxicity call", "setting": "HSkMC", "result": "inactive"},
      {"measurement": "cytotoxicity call", "setting": "HepG2", "result": "inactive"},
      {"measurement": "growth inhibition call", "setting": "S. aureus RN4220", "result": "inactive"}
    ]},
    {"smiles": "C[C@@H]1CCCCO[C@H](CN(C)CC2CCCCC2)[C@@H](C)CN([C@H](C)CO)C(=O)c2cc(NC(=O)Nc3ccc(F)cc3)ccc2O1", "values": [
      {"measurement": "cytotoxicity call", "setting": "HSkMC", "result": "inactive"},
      {"measurement": "cytotoxicity call", "setting": "HepG2", "result": "inactive"},
      {"measurement": "growth inhibition call", "setting": "S. aureus RN4220", "result": "inactive"}
    ]},
    {"smiles": "Cc1ccc(S(=O)(=O)N2C[C@H](O)COC[C@@H]3O[C@@H](CC(=O)NCCN4CCCCC4)CC[C@H]32)cc1", "values": [
      {"measurement": "cytotoxicity call", "setting": "HSkMC", "result": "inactive"},
      {"measurement": "cytotoxicity call", "setting": "HepG2", "result": "inactive"},
      {"measurement": "growth inhibition call", "setting": "S. aureus RN4220", "result": "inactive"}
    ]},
    {"smiles": "CN1CCN(C(=O)C[C@@H]2CC[C@@H]3[C@H](COC[C@H](O)CN3Cc3ccc(Oc4ccccc4)cc3)O2)CC1", "values": [
      {"measurement": "cytotoxicity call", "setting": "HSkMC", "result": "inactive"},
      {"measurement": "cytotoxicity call", "setting": "HepG2", "result": "inactive"},
      {"measurement": "growth inhibition call", "setting": "S. aureus RN4220", "result": "inactive"}
    ]},
    {"smiles": "C[C@H](CO)N1C[C@H](C)[C@H](CN(C)C(=O)Nc2ccc3c(c2)OCO3)OCc2ccccc2-c2c(n(C)c3ccccc23)C1=O", "values": [
      {"measurement": "cytotoxicity call", "setting": "HSkMC", "result": "inactive"},
      {"measurement": "cytotoxicity call", "setting": "HepG2", "result": "inactive"},
      {"measurement": "growth inhibition call", "setting": "S. aureus RN4220", "result": "inactive"}
    ]},
    {"smiles": "Cc1noc(C)c1NC(=O)N(C)C[C@H]1Oc2ccc(NC(=O)NC(C)C)cc2C(=O)N([C@@H](C)CO)C[C@H]1C", "values": [
      {"measurement": "cytotoxicity call", "setting": "HSkMC", "result": "inactive"},
      {"measurement": "cytotoxicity call", "setting": "HepG2", "result": "inactive"},
      {"measurement": "growth inhibition call", "setting": "S. aureus RN4220", "result": "inactive"}
    ]},
    {"smiles": "C[C@H]1CN([C@@H](C)CO)C(=O)c2cccc(NC(=O)Nc3ccc(C(F)(F)F)cc3)c2O[C@@H]1CN(C)Cc1ccc(-c2ccccc2)cc1", "values": [
      {"measurement": "cytotoxicity call", "setting": "HSkMC", "result": "inactive"},
      {"measurement": "cytotoxicity call", "setting": "HepG2", "result": "inactive"},
      {"measurement": "growth inhibition call", "setting": "S. aureus RN4220", "result": "inactive"}
    ]},
    {"smiles": "CC(C)/C=C1\\CC/C(=C\\c2ccc(C(F)(F)F)cc2)C1=O", "values": [
      {"measurement": "cytotoxicity call", "setting": "HSkMC", "result": "inactive"},
      {"measurement": "cytotoxicity call", "setting": "HepG2", "result": "active"},
      {"measurement": "growth inhibition call", "setting": "S. aureus RN4220", "result": "inactive"}
    ]},
    {"smiles": "COCC(=O)N(C)C[C@H]1Oc2cc(C#C[C@@H](C)O)ccc2S(=O)(=O)N([C@H](C)CO)C[C@@H]1C", "values": [
      {"measurement": "cytotoxicity call", "setting": "HSkMC (human skeletal muscle cells)", "result": "inactive"},
      {"measurement": "cytotoxicity call", "setting": "HepG2", "result": "inactive"},
      {"measurement": "growth inhibition call", "setting": "S. aureus RN4220", "result": "inactive"}
    ]}
  ]
}
